Assay results reported in the supplement of paper PMC4604168 (melanoma cell lines).
Some of the results follow. Most values come without repeats; read them as rough.

Tested on: A375
Assay: cell count relative to DMSO control; melanoma cells; higher = more viable cells
Conditions: library dose: standard library concentration; 72 h
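Note: cells treated in 1,536-well plates, then fixed and DAPI-stained, with nuclei counted from automated high-throughput microscope images.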

**Q.** Which cell count does the source give for `O=C(O)c1ccc2c(c1)nc(Nc1cccc(Cl)c1)c1ccncc12` + CC(C)CCN1c2nc(Nc3cc(F)c(O)c(F)c3)ncc2N(C)C(=O)C1C [BID1870] (first compound 2 µM, partner dose 1 µM) here?
**A.** 77.1%

**Q.** For `Cc1cc(N2CCOCC2)cc2[nH]c(-c3c(NC[C@@H](O)c4cccc(Cl)c4)cc[nH]c3=O)nc12` + Cn1cc(/C=C2\C(=O)Nc3cccnc32)c2ccccc21 [GW441756] (first compound 1 µM, partner dose 2 µM), which cell count is on record?
**A.** 185%

**Q.** Which cell count does the source give for `O=C(Nc1ccccc1)c1cc([N+](=O)[O-])ccc1Cl` + O=C1NC(=O)/C(=C/c2ccc(-c3ccc(F)cc3O)o2)S1 [AS252424] (first compound 10 µM, partner dose 5 µM) here?
**A.** 175%

**Q.** With `O=C(O)c1ccc2c(c1)nc(Nc1cccc(Cl)c1)c1ccncc12` + COc1ccc(COc2ccc(Cc3cnc(N)nc3N)cc2OC)cc1 [GW2580] (first compound 2 µM, partner dose 5 µM) as the molecule, how does the cell count read?
**A.** 73.4%

**Q.** With `O=C(O)[C@@H]1[O][Sb](=[O])([O][Sb]2(=[O])[O][C@H]([C@H](O)CO)[C@H](O)[C@H](C(=O)O)[O]2)[O][C@H]([C@H](O)CO)[C@@H]1O` (stereo partly specified) [stibogluconate] + Cn1cc(/C=C2\C(=O)Nc3cccnc32)c2ccccc21 [GW441756] (first compound 10 µM, partner dose 2 µM) as the molecule, how does the cell count read?
**A.** 171%

**Q.** With `O=C(O)[C@@H]1[O][Sb](=[O])([O][Sb]2(=[O])[O][C@H]([C@H](O)CO)[C@H](O)[C@H](C(=O)O)[O]2)[O][C@H]([C@H](O)CO)[C@@H]1O` (stereo partly specified) [stibogluconate] + Cc1cc([N+](=O)[O-])ccc1NS(=O)(=O)c1cc(Cl)ccc1Cl [FH535] (first compound 10 µM, partner dose 5 µM) as the molecule, how does the cell count read?
**A.** 76.5%
